Assay results reported in PMC9418238.
No constants are given. Whether binding was seen depends on the method and setting. For some of these results: Binding seen in cells or lysates may run through a third protein. Some entries that bind do so weakly or less than the wild type. For some of these results: Where a sequence is shown, tags or fusion partners need not be part of it.

Chains of the proteins cited; added tags and fusions are not shown.
UniProt Q7Z434: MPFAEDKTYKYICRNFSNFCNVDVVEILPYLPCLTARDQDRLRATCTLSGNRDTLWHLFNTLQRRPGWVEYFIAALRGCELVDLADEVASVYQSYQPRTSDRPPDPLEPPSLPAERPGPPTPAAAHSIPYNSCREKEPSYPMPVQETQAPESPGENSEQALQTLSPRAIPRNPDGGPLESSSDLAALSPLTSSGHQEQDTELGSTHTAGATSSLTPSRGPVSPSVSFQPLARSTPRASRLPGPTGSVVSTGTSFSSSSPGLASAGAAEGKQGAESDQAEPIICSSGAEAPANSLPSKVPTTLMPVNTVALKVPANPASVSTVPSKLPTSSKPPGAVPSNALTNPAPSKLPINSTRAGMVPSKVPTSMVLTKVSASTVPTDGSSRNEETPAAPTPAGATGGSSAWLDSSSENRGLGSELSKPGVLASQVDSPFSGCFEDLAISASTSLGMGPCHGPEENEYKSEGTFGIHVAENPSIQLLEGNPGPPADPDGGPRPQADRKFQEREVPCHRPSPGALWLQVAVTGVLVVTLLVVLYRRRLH
UniProt Q8N884: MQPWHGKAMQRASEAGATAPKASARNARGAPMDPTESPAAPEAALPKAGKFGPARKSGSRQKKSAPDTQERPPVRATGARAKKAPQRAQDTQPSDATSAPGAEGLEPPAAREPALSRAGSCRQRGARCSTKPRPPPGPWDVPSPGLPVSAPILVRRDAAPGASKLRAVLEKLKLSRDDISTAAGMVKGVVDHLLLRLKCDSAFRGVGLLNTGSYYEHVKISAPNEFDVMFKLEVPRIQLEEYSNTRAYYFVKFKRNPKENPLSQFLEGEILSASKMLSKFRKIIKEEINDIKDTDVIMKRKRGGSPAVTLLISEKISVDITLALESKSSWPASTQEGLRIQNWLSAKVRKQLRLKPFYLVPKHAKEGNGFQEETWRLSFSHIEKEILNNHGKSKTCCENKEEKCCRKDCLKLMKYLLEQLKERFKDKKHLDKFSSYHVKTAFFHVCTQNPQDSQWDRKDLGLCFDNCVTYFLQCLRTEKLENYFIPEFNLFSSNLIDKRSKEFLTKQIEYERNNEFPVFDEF

T1: HA-RIG-I (UniProt O95786)
T1 sequence: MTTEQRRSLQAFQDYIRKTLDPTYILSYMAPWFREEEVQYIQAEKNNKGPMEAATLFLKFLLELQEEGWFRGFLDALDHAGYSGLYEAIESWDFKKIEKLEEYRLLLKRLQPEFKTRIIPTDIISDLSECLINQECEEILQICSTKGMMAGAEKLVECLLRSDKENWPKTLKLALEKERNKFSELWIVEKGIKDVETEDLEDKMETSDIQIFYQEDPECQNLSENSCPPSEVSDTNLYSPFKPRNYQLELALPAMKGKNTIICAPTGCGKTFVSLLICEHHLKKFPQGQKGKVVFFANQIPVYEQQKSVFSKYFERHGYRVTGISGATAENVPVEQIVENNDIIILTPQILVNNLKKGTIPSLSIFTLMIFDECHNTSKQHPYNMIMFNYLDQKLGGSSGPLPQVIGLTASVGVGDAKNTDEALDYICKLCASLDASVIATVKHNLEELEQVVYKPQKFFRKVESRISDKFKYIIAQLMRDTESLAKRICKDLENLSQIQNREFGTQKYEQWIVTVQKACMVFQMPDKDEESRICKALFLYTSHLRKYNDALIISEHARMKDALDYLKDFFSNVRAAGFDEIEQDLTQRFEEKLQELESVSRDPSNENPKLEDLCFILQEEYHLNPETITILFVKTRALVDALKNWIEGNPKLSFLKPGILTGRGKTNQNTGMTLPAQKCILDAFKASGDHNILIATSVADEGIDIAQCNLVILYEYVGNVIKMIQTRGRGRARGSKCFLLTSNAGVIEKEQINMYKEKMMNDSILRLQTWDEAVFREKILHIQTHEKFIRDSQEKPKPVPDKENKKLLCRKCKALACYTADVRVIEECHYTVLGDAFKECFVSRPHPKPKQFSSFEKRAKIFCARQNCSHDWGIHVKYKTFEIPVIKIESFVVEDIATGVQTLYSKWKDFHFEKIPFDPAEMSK

T2: HA-TBKI (TANK-binding kinase 1) (UniProt Q9UHD2)
T2 sequence: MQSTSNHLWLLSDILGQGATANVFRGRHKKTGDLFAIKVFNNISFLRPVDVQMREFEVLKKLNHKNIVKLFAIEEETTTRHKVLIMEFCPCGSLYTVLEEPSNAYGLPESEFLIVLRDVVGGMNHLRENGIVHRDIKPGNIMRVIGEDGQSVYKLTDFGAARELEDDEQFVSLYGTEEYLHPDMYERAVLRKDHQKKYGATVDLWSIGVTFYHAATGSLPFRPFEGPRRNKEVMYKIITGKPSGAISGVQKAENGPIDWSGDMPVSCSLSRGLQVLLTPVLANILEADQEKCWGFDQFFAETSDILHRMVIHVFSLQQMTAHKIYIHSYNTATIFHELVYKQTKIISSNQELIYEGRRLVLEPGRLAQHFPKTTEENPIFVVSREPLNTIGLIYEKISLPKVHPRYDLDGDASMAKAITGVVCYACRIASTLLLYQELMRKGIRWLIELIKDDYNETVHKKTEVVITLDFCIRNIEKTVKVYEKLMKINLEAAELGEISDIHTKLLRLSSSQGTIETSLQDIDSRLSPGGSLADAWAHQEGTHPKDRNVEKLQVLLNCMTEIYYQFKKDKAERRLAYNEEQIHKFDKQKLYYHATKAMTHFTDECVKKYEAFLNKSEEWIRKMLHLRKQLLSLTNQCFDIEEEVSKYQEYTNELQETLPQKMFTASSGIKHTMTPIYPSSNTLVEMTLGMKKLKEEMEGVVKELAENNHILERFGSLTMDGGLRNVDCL

T3: Myc-MDA5 (UniProt Q9BYX4)
T3 sequence: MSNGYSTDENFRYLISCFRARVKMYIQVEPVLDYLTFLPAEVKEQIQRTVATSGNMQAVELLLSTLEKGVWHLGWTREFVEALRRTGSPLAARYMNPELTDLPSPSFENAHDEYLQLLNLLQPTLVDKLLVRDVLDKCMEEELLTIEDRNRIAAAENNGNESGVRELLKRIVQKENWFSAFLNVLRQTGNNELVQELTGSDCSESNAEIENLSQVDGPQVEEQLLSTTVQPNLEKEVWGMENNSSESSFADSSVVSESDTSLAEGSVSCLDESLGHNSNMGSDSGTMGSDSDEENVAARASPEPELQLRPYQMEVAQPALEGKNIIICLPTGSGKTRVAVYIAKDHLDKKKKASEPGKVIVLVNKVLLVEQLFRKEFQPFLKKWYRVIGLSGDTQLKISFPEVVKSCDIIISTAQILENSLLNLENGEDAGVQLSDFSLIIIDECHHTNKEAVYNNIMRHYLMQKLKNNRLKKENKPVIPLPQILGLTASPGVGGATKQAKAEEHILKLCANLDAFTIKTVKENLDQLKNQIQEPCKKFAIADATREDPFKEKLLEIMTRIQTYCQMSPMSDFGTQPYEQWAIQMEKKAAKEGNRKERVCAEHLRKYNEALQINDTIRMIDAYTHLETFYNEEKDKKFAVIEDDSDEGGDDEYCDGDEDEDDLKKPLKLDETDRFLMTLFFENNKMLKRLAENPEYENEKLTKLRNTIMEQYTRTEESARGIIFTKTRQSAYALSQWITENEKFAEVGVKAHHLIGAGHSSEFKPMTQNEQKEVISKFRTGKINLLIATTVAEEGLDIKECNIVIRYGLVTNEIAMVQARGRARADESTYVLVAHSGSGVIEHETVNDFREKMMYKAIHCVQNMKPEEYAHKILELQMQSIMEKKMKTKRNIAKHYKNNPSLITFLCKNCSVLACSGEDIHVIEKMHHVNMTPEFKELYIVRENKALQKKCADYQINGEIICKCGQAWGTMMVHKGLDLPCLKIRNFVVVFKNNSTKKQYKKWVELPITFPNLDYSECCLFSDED

T4: Myc-IRF3 (UniProt Q14653)
T4 sequence: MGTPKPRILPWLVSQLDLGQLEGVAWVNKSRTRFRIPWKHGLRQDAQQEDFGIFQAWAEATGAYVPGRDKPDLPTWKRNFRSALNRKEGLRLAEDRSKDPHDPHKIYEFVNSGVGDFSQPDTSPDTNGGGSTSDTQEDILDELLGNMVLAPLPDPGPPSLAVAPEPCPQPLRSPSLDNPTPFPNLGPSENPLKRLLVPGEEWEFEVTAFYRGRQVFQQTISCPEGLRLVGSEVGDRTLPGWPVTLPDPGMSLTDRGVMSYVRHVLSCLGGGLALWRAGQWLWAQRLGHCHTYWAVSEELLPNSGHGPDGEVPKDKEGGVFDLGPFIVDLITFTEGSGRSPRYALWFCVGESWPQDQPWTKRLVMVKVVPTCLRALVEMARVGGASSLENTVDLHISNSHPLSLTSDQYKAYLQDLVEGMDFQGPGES

T5: endogenous MAVS of mouse peritoneal macrophages (mouse (endogenous in peritoneal macrophages)), Q8VCF0
T5 chain: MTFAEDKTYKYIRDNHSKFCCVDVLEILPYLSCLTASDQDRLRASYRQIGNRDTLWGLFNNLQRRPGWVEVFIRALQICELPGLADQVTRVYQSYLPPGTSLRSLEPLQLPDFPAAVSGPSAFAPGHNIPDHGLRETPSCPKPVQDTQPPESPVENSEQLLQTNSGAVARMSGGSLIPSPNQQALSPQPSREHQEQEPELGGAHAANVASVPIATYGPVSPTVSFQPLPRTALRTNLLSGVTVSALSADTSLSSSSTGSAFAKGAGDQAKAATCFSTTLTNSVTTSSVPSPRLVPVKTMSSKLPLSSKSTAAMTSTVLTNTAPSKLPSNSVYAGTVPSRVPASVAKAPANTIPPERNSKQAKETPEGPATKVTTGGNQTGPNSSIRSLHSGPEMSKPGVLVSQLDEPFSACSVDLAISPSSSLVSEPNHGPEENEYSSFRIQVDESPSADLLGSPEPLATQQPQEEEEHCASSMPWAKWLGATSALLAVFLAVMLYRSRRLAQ

B1: GFP-PRMT9 (protein arginine methyltransferase 9) (enzyme, UniProt Q6P2P2-1 1-845)
chain: MSNSRPRSRRDAGGGAGAAGRDELVSRSLQSAEHCLGVQDFGTAYAHYLLVLSLAPELKHDVKETFQYTLFRWAEELDALSRIQDLLGCYEQALELFPDDEVICNSMGEHLFRMGFRDEAAGYFHKAVKLNPDFSDAKENFYRVANWLVERWHFIMLNDTKRNTIYNAAIQKAVCLGSKSVLDIGAGTGILSMFAKKAGAHSVYACELSKTMYELACDVVAANKMEAGIKLLHTKSLDIEIPKHIPERVSLVVTETVDAGLFGEGIVESLIHAWEHLLLQPKTKGESANCEKYGKVIPASAVIFGMAVECAEIRRHHRVGIKDIAGIHLPTNVKFQSPAYSSVDTEETIEPYTTEKMSRVPGGYLALTECFEIMTVDFNNLQELKSLATKKPDKIGIPVIKEGILDAIMVWFVLQLDDEHSLSTSPSEETCWEQAVYPVQDLADYWIKPGDHVMMEVSCQDCYLRIQSISVLGLECEMDVAKSFTQNKDLLSLGNEAELCSALANLQTSKPDAVEQTCILESTEIALLNNIPYHEGFKMAMSKVLSSLTPEKLYQTMDTHCQNEMSSGTGQSNTVQNILEPFYVLDVSEGFSVLPVIAGTLGQVKPYSSVEKDQHRIALDLISEANHFPKETLEFWLRHVEDESAMLQRPKSDKLWSIIILDVIEPSGLIQQEIMEKAAISRCLLQSGGKIFPQYVLMFGLLVESQTLLEENAVQGTERTLGLNIAPFINQFQVPIRVFLDLSSLPCIPLSKPVELLRLDLMTPYLNTSNREVKVYVCKSGRLTAIPFWYHMYLDEEIRLDTSSEASHWKQAAVVLDNPIQVEMGEELVLSIQHHKSNVSITVKQ
B2: endogenous MAVS of mouse peritoneal macrophages, Q8VCF0 1-503 (protein)
chain: T5 chain

Tests used:
HA-RIG-I = biological target: T1, HA-RIG-I; assay: co-IP; HEK293T cells cotransfected with GFP-PRMT9 and the HA- or Myc-tagged adaptor; IP-buffer 150 mM NaCl, 1% NP-40, 10 mM Tris-HCl, 1 mM EDTA; immunoblot
[1] = biological target: T2, HA-TBKI (TANK-binding kinase 1); assay: as above
Myc-MDA5 = biological target: T3, Myc-MDA5; assay: as above
[2] = biological target: HA-MAVS (mitochondrial antiviral signaling protein) (human) (UniProt Q7Z434); assay: as above
Myc-IRF3 = biological target: T4, Myc-IRF3; assay: as above
HA-cGAS = HA-cGAS (UniProt Q8N884); assay: as above
[3] = biological target: T5, endogenous MAVS of mouse peritoneal …; assay: semi-denaturing detergent agarose gel electrophoresis (SDD-AGE); crude mitochondria of mouse peritoneal macrophages infected with SeV for 0-8 h; endogenous MAVS; details: remark: other sources report otherwise

Row | Binder | binding (HA-RIG-I) | binding [1] | binding (Myc-MDA5) | binding [2] | binding (Myc-IRF3) | binding (HA-cGAS) | binding [3]
1 | B1 | no binding | no binding | no binding | binds | no binding | no binding | –
2 | B2 | – | – | – | – | – | – | binds
